# Experimental data: the supplement of paper PMC9174493
# Some of the results follow. Single values of this set are uncertain. Values with irradiation are relative to irradiated vehicle.
# Test system: A549-Dual
# Assay: ISRE reporter (Lucia luciferase) activity, viability-corrected, relative to vehicle (fold change vs vehicle); higher = more activation of STING-IRF / NF-kB immune response reporter
# Conditions: 10 µM; irradiation: none
row,SMILES,ISRE reporter
1,Cc1cn(C2CC(N=[N+]=[N-])C(CO)O2)c(=O)[nH]c1=O (stereo unspecified) [Zidovudine],0.57
2,COC(=O)C(c1ccccc1Cl)N1CCc2sccc2C1.O=S(=O)(O)O (stereo unspecified) [Clopidogrel],0.82
3,Cc1c(C(C)C)c(=O)n(-c2ccccc2)n1C [Propyphenazone (4-Isopropylantipyrine)],0.512
4,Cl.N[C@@H](CS)C(=O)O [L-Cysteine HCl],0.795
5,O=c1[nH]cnc2c1ncn2C1CCC(CO)O1 (stereo unspecified) [Didanosine],0.781
6,O=[N+]([O-])c1ccc(O)cc1 [4-Nitrophenol],0.722
7,CCCOc1ccc(C(=O)OCCN(CC)CC)cc1N.Cl [Proparacaine HCl],0.848
8,CCN(CCO)CCCC(C)Nc1ccnc2cc(Cl)ccc12.O=S(=O)(O)O (stereo unspecified) [Hydroxychloroquine Sulfate],1.34
9,O=S(=O)([O-])Oc1ccc(C(c2ccc(OS(=O)(=O)[O-])cc2)c2ccccn2)cc1.[Na+].[Na+] [Sodium Picosulfate],0.755
10,CN/C(=C\[N+](=O)[O-])NCCSCc1ccc(CN(C)C)o1.Cl [Ranitidine Hydrochloride],0.902
11,CC(=O)O.CC(C)CC(NC(=O)C(COC(C)(C)C)NC(=O)C(Cc1ccc(O)cc1)NC(=O)C(CO)NC(=O)C(Cc1c[nH]c2ccccc12)NC(=O)C(Cc1cnc[nH]1)NC(=O)C1CCC(=O)N1)C(=O)NC(CCCN=C(N)N)C(=O)N1CCCC1C(=O)NNC(N)=O (stereo unspecified) [Goserelin Acetate],0.944
12,O=c1c(OC2OC(CO)C(O)C(O)C2O)c(-c2ccc(O)c(O)c2)oc2cc(O)cc(O)c12 (stereo unspecified) [Isoquercitrin],0.549
13,CN/C(=C\[N+](=O)[O-])NCCSCc1ccc(CN(C)C)o1 [Ranitidine],0.861
14,CNCCC=C1c2ccccc2CCc2ccccc21.Cl [Nortriptyline hydrochloride],0.71
15,COC(=O)c1cc(OC)c2c(c1-c1c(CO)cc(OC)c3c1OCO3)OCO2 [Bicyclol],0.645
16,CCn1cc(C(=O)O)c(=O)c2cc(F)c(N3CCNC(C)C3)c(F)c21 (stereo unspecified) [Lomefloxacin],0.628
17,CC(C)(C)C(=O)C(Oc1ccc(Cl)cc1)n1ccnc1 (stereo unspecified) [Climbazole],0.828
18,COc1cc2nc(N3CCN(C(=O)C4COc5ccccc5O4)CC3)nc(N)c2cc1OC.CS(=O)(=O)O (stereo unspecified) [Doxazosin Mesylate],1.42
19,O=C(O)/C=C(/CC(=O)O)C(=O)O [cis-Aconitic acid],0.736
20,CCn1cc(C(=O)O)c(=O)c2cc(F)c(N3CCN(C)CC3)cc21.CS(=O)(=O)O [Pefloxacin Mesylate],0.773
21,CCCCc1nc(Cl)c(CO)n1Cc1ccc(-c2ccccc2-c2nnn[nH]2)cc1.[KH] [Losartan Potassium (DuP 753)],0.701
22,C#CC1(O)CCC2C3CCC4=CCCCC4C3C(=C)CC21CC (stereo unspecified) [Desogestrel],0.806
23,NC(=O)OCC(COC(N)=O)c1ccccc1 [Felbamate],0.703
24,C1=Cc2ccccc2Nc2ccccc21 [Iminostilbene],0.612
25,Cc1ncc(CO)c(CO)c1O.O=C1CCC(C(=O)O)N1 [Metadoxine],0.626
26,CO/N=C(\C(=O)NC1C(=O)N2C(C(=O)[O-])=C(COC(N)=O)CSC12)c1ccco1.[Na+] (stereo unspecified) [Cefuroxime sodium],0.794
